{
  "source": "PubChem BioAssay",
  "note": "The inconclusive results got no clear call from the source; some entries with a clear call stand among them for comparison. Active and inactive are the calls of the source.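 The calls were made as follows: active = viability at or below 27.92% in each of two runs, the all-compound median minus 4 SD; inconclusive = no clear call, values can overlap the other calls; inactive = the rest.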",
  "data": [
    {"assay": "viability of PTEN-null HCT116 cells – cell-based, HCT116 clonal line, CellTiter-Glo, pilot screen (AID 824);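 also: 0% = 20 µM Hyamine control and 100% = vehicle cell control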", "settings": "HCT116 PTEN-deleted viability, 60 h, at 10 µM, hits give low values", "values": [
      {"compound": "COCCCNC(=O)Cn1cc2c(n1)CCC(C)C2", "note": "(centres undefined)", "viability": "inactive: 102%"},
      {"compound": "C=CCOC(=O)COc1ccc2c(C)c(C)c(=O)oc2c1C", "viability": "inactive: 95.9%"},
      {"compound": "CCOc1ccc(-n2c(SCC(=O)Nc3ccc4c(c3)OCCO4)nc3c(c2=O)SCC3)cc1", "viability": "inconclusive: 79%"},
      {"compound": "O=C(Nc1nn[nH]n1)c1cccc(Oc2ccccc2)c1", "viability": "inconclusive: 96.6%"},
      {"compound": "CN1CCCCc2c1[nH]c1ccccc1c2=O", "viability": "inconclusive: 96.8%"},
      {"compound": "O=C(COCCOCC(=O)N(c1ccccn1)C1CCCCC1)N(c1ccccn1)C1CCCCC1", "viability": "inconclusive: 92.7%"},
      {"compound": "COc1ccc(NC2=NCC(=O)N2c2ccccc2)c(OC)c1", "viability": "inconclusive: 95.9%"},
      {"compound": "Cc1cc2cc(CNC(=O)c3ccc(Br)o3)ccc2[nH]1", "viability": "inactive: 85.1%"},
      {"compound": "Cc1noc(C)c1S(=O)(=O)N(CC(=O)NCc1ccc2c(c1)OCO2)c1ccc(C(C)C)cc1", "viability": "inactive: 76.2%"},
      {"compound": "O=C(CCn1c(=O)[nH]c2ccsc2c1=O)N1CCc2ccccc2C1", "viability": "inconclusive: 99.6%"},
      {"compound": "CC1(C)Cc2c(sc3nc(SCC(=O)N4CCOCC4)nc(N)c23)CO1", "viability": "inconclusive: 93.3%"},
      {"compound": "Cc1oc(-c2cccc(Cl)c2)nc1CN1CCCC(C(=O)NC(C)c2ccc3c(c2)OCCO3)C1", "note": "(centres undefined)", "viability": "inactive: 37.5%"},
      {"compound": "CCOC(=O)C1CCN(CCC(=O)Nc2cccc(Cl)c2C)CC1", "viability": "inconclusive: 98.2%"},
      {"compound": "COc1cccc(C2CC(c3ccc(Cl)cc3)n3nc(N)nc3N2)c1", "note": "(centres undefined)", "viability": "inactive: 91.1%"},
      {"compound": "COc1ccccc1C(=O)OCn1nnc2ccccc2c1=O", "viability": "inactive: 91.2%"},
      {"compound": "C=C(C)Cn1c(CCNC(=O)C(C)(C)C)nc2ccccc21", "viability": "inconclusive: 97.3%"},
      {"compound": "Cc1ccc(OCCCC(=O)Nc2nncs2)cc1", "viability": "inconclusive: 99%"},
      {"compound": "CCOc1cc(CNC(=O)CN2C(=O)c3ccccc3S2(=O)=O)ccc1OC", "viability": "inconclusive: 101%"},
      {"compound": "CC(Sc1nc2ccccc2s1)C(=O)N1CCOCC1", "note": "(centres undefined)", "viability": "inconclusive: 97.7%"},
      {"compound": "C=C(C)Cn1c(CCCNC(=O)CCC)nc2ccccc21", "viability": "inconclusive: 105%"},
      {"compound": "CCn1cc(C(=O)NCc2cccnc2)c2cc(OC)c(OC)cc2c1=O", "viability": "inconclusive: 89.2%"},
      {"compound": "CC(C)=CC(=O)OCC(=O)NC(=O)NC(C)(C)C", "viability": "inconclusive: 92.7%"},
      {"compound": "CCN(CC)CCCN1C(=O)C(O)=C(C(=O)c2ccco2)C1c1ccc(C)o1", "note": "(centres undefined)", "viability": "inconclusive: 96.7%"},
      {"compound": "CC(C)Sc1nc(NCc2ccco2)c2c3c(sc2n1)COC(C)(C)C3", "viability": "inconclusive: 78.8%"},
      {"compound": "Cc1nn(C)c(C)c1S(=O)(=O)N(CC(=O)NCc1cccs1)c1ccc(C(C)C)cc1", "viability": "inactive: 87.5%"},
      {"compound": "CC(C)(C)c1nnc2sc(SCC(=O)c3cccs3)nn2c1=O", "viability": "inactive: 81.8%"},
      {"compound": "CCOC(=O)CNC(=O)c1cn(CC)c(=O)c2cc(OC)c(OC)cc12", "viability": "inconclusive: 107%"},
      {"compound": "Cc1ccc(S(=O)(=O)c2nc(-c3ccc(F)cc3)oc2SCC(N)=O)cc1", "viability": "inconclusive: 94.8%"},
      {"compound": "CC1CCCN(S(=O)(=O)c2coc(C(N)=O)c2)C1", "note": "(centres undefined)", "viability": "inactive: 99.5%"},
      {"compound": "Cc1ccc2oc(=O)n(CC(=O)O)c2c1", "viability": "inactive: 93.7%"},
      {"compound": "O=C(N=c1nc2ccccn2s1)c1ccccc1", "viability": "inconclusive: 66.7%"},
      {"compound": "CCCCNC(=O)C1C2C=CC3(CN(Cc4ccc(C)cc4)C(=O)C13)O2", "note": "(centres undefined)", "viability": "inconclusive: 95.7%"},
      {"compound": "CCCn1c(CCNC(=O)c2cccs2)nc2ccccc21", "viability": "inactive: 91.5%"},
      {"compound": "Cn1c(=O)c2c(nc(N3CCCCCC3)n2CCSc2nc3ccccc3o2)n(C)c1=O", "viability": "inactive: 83%"},
      {"compound": "c1cncc(CNc2c3c(nc4nnnn24)CCCC3)c1", "viability": "inconclusive: 83.7%"},
      {"compound": "O=C(O)CCC(=O)N1CCc2cc(S(=O)(=O)Nc3ccc4c(c3)OCCO4)ccc21", "viability": "inactive: 96.3%"},
      {"compound": "COc1ccc(S(=O)(=O)n2cnc3cc(C)c(C)cc32)cc1", "viability": "inactive: 93.4%"},
      {"compound": "C=CCNC(=O)c1ccc2c(c1)nnn2C", "viability": "inconclusive: 96.9%"},
      {"compound": "O=C(Nc1ccc(Cl)cc1)c1ccncc1", "viability": "inconclusive: 92.2%"}
    ]}
  ]
}
